The subject of data set [1] is SW620 cell line (K-Ras G12V). The experiment in a line: Phospho-ERK1/2(THR202/TYR204) HTRF assay. To be noted: Homo sapiens, SW-620; SW620 cells (K-Ras G12V), 2 hours incubation; read-out: p-ERK, IC50(nM) SW620. Format: cell-based.
For another data set, the target named is K-Ras G13D (Homo sapiens, UniProt P01116, G13D). The experiment in a line: Nucleotide exchange assay (GDP form K-Ras, no SOS1 added), TR-FRET. As to conditions: read-out: Biochemical assays, IC50, K-Ras G13D GDP. As for the experimental part:
The parameters were F486: Excitation 340 nm, Emission 486 nm, Lag time 100 pas, Integration time 200 pas; F515: Excitation 340 nm, Emission 515 nm, Lag time 100 pas, Integration time 200 pas. TR-FRET ratios for each individual wells were calculated by equation: TR-FRET ratio=(Signal F515/Signal F486)*10000.

A short description of data set [2]: Mouse pharmacokinetic study. It counts as in vivo. To be noted: female, Balb/c mouse, single dose 10 mg/kg, po, plasma; for AUC(0-t): read-out: AUC0-8h; for Cmax: read-out: Cmax. The method in brief: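 Female Balb/c mice (n=3/group) received a single 3 mg/kg iv dose (sampled 0.083–8 h) or 10 mg/kg po (0.5–8 h). Plasma levels were measured by LC-MS/MS. Prodrugs were given po only, at a dose equal to 10 mg/kg parent, with both prodrug and parent measured.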

The subject of data set [3] is MKN-1 cell line (K-Ras WT amplification). The experiment in a line: Phospho-ERK1/2(THR202/TYR204) HTRF assay. It counts as cell-based. To be noted: Homo sapiens; MKN-1 cells (K-Ras WT amplification), 2 hours incubation; read-out: p-ERK, IC50(nM) MKN-1.

Turning to `C#Cc1c(F)ccc2cc(O)cc(-c3ncc4c(N(CC)[C@@H]5C[C@H]5F)nc(OC[C@@]56CCCN5C[C@H](F)C6)nc4c3F)c12.O=C(O)C(F)(F)F` (mixture of isomers) [Compound 6, 4-(4-(ethyl(trans-2-fluorocyclopropyl)amino)-8-fluoro-2-(((2R,7aS)-2-fluorotetrahydro-1H-pyrrolizin-7a(5H)-yl)methoxy)pyrido[4,3-d]pyrimidin-7-yl)-5-ethynyl-6-fluoronaphthalen-2-ol 2,2,2-trifluoroacetic acid], the IC50 in data set [1] worked out at 5.96 nM; at K-Ras G13D, 4.38 nM; in data set [3], 3.82 nM. Also, the AUC(0-t) in data set [2] came to 3450 ng·h/mL. Besides, the Cmax in data set [2] was 896 ng/mL.
The like results for `C=Cc1c(F)ccc2cc(O)cc(-c3ncc4c(N(C)[C@@H]5C[C@H]5F)nc(OC[C@@]56CCCN5C[C@H](F)C6)nc4c3F)c12.O=C(O)C(F)(F)F` (mixture of isomers) [Compound 16, 6-fluoro-4-(8-fluoro-4-((trans-2-fluorocyclopropyl)(methyl)amino)-2-(((2R,7aS)-2-fluorotetrahydro-1H-pyrrolizin-7a(5H)-yl)methoxy)pyrido[4,3-d]pyrimidin-7-yl)-5-vinylnaphthalen-2-ol 2,2,2-trifluoroacetic acid] were, in that order, 2.28 nM, 6.97 nM, 13.8 nM, 696 ng·h/mL and 165 ng/mL.
As to `C#Cc1c(F)ccc2cc(O)cc(-c3ncc4c(N(C)C5CC5)nc(OC[C@@]56CCCN5C[C@H](F)C6)nc4c3F)c12` [Compound 1, 4-(4-(cyclopropyl(methyl)amino)-8-fluoro-2-(((2R,7aS)-2-fluorotetrahydro-1H-pyrrolizin-7a(5H)-yl)methoxy)pyrido[4,3-d]pyrimidin-7-yl)-5-ethynyl-6-fluoronaphthalen-2-ol], the IC50 was 9.18 nM in data set [1], 15.2 nM at K-Ras G13D and 10.6 nM in data set [3]. In addition, the AUC(0-t) in data set [2] was 3000 ng·h/mL. Further, the Cmax in data set [2] is 1120 ng/mL.
For the molecule `C#Cc1c(F)ccc2cc(O)cc(-c3ncc4c(N(C)[C@H]5C[C@@H]5F)nc(OC[C@@]56CCCN5C[C@H](F)C6)nc4c3F)c12` [Compound 3A, 5-ethynyl-6-fluoro-4-(8-fluoro-4-(((1S,2S)-2-fluorocyclopropyl)(methyl)amino)-2-(((2R,7aS)-2-fluorotetrahydro-1H-pyrrolizin-7a(5H)-yl)methoxy)pyrido[4,3-d]pyrimidin-7-yl)naphthalen-2-ol], the IC50 in data set [1] was 0.969 nM; at K-Ras G13D, 0.939 nM; in data set [3], 1.93 nM. In data set [2], the AUC(0-t) was 1260 ng·h/mL. Moreover, the Cmax in data set [2] came out at 490 ng/mL.

The values are drawn from patent publication US20240376128A1, “N-CYCLOPROPYLPYRIDO [4, 3-D] PYRIMIDIN-4-AMINE DERIVATIVES AND USES THEREOF” (Jacobio Pharmaceuticals Co., Ltd., priority 2021, published 2024).
